The values below come from article PMC4242493.

The other results are listed elsewhere or left out. The list includes weakly bound sequences.

The assay concerns the target MaxL homodimer (UniProt P61244). The assay can be described thus: universal protein-binding microarray (PBM). Particulars: PBS-based mixture, 10 nM His-tagged protein dimer, 2% milk, 200 ng/uL BSA, 50 ng/uL salmon testes DNA, 0.02% TX-100; detection with Alexa 488 anti-His …; high values mean tight binding; most listed sequences are background and not binding sites; double strand, one strand shown.
Chain of UniProt P61244 (P61244 whole entry): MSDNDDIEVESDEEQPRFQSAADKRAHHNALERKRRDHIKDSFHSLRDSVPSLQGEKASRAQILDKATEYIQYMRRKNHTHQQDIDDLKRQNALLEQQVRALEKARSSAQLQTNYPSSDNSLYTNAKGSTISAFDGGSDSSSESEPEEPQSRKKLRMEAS
Turning to GCTACGAC, the binding signal (normalized occupancy) came out at 0.078.

As to CAGCTTAC, the binding signal (normalized occupancy) is 0.0732.

In the case of CCAAGGTC, the binding signal (normalized occupancy) stood at 0.0691.

For the sequence CCATGGGG, the binding signal (normalized occupancy) amounted to 0.0949.

With ACTTTCTC, the binding signal (normalized occupancy) is 0.0765.

For the sequence ACGGTTTC, the binding signal (normalized occupancy) worked out at 0.0746.

For the sequence CACCGGCA, the binding signal (normalized occupancy) was 0.0736.

On to ACTGATTG, for which the binding signal (normalized occupancy) turned out to be 0.0757.

Take TAGACCAA: the binding signal (normalized occupancy) worked out at 0.0741.

As for CAGAGTAC, the binding signal (normalized occupancy) was 0.0685.

For the sequence TTTCGAAA, the binding signal (normalized occupancy) turned out to be 0.0664.

Take ATGTTGCA: the binding signal (normalized occupancy) was determined as 0.0888.

Consider ACTGCATC, for which the binding signal (normalized occupancy) was found to be 0.0762.

On to CTGATTGC, for which the binding signal (normalized occupancy) turned out to be 0.0801.

As for AGCTAAAC, the binding signal (normalized occupancy) stood at 0.0677.

Regarding ACATCGAA, the binding signal (normalized occupancy) worked out at 0.0799.

In the case of GGAGTTTA, the binding signal (normalized occupancy) was determined as 0.0748.

Turning to CTCCATGA, the binding signal (normalized occupancy) was 0.0798.

As for CCTCGGTC, the binding signal (normalized occupancy) worked out at 0.0723.

In the case of ACAATGAG, the binding signal (normalized occupancy) is 0.0811.

On to GGATGACA, for which the binding signal (normalized occupancy) is 0.0813.

In the case of ACTCCTCA, the binding signal (normalized occupancy) came to 0.0762.

In the case of CCACGGCC, the binding signal (normalized occupancy) amounted to 0.0722.

Take CTCTAGAG: the binding signal (normalized occupancy) stood at 0.068.

As for GCTCTTGA, the binding signal (normalized occupancy) stood at 0.072.

For CACCGCGA, the binding signal (normalized occupancy) amounted to 0.0739.

In the case of TAGAAAGA, the binding signal (normalized occupancy) was 0.0725.

Consider CCTATTAC, for which the binding signal (normalized occupancy) is 0.0809.

With ATACCCCA, the binding signal (normalized occupancy) was 0.0851.

In the case of TCAGGAGA, the binding signal (normalized occupancy) was found to be 0.0762.

As for GACCGCGA, the binding signal (normalized occupancy) came to 0.071.

For the sequence CCATTGTC, the binding signal (normalized occupancy) was determined as 0.0734.

With GATGTGAA, the binding signal (normalized occupancy) worked out at 0.0819.

As for CACTTCTG, the binding signal (normalized occupancy) turned out to be 0.0775.

Take CTCTTCCC: the binding signal (normalized occupancy) was 0.0807.

With CACATTCC, the binding signal (normalized occupancy) was 0.0845.

Turning to TGGACCAA, the binding signal (normalized occupancy) was 0.076.

Turning to TCCCAACA, the binding signal (normalized occupancy) was determined as 0.0757.

In the case of ATCGCCTG, the binding signal (normalized occupancy) was 0.0729.

Regarding GCGTTCTA, the binding signal (normalized occupancy) was 0.0752.

Take AGACAAGA: the binding signal (normalized occupancy) was 0.076.

With AGCCGGCG, the binding signal (normalized occupancy) worked out at 0.0676.

On to GCAGAAAA, for which the binding signal (normalized occupancy) was 0.073.

For AAAACGTG, the binding signal (normalized occupancy) was 0.122.

In the case of ACCCTACT, the binding signal (normalized occupancy) was found to be 0.079.

On to ACACTTCC, for which the binding signal (normalized occupancy) amounted to 0.0765.

With CAAACCCA, the binding signal (normalized occupancy) stood at 0.0843.

Turning to AGGCGGGC, the binding signal (normalized occupancy) came out at 0.0725.

On to AACTAGTA, for which the binding signal (normalized occupancy) was determined as 0.0766.

Consider CACAGTCC, for which the binding signal (normalized occupancy) is 0.0729.

AAAGCGAG: the binding signal (normalized occupancy) was determined as 0.0681.

With CGGGTTTA, the binding signal (normalized occupancy) was 0.0753.

Consider AATCGAAC, for which the binding signal (normalized occupancy) was 0.0797.

On to CATTGGAA, for which the binding signal (normalized occupancy) stood at 0.0787.

For the sequence GCGGTACA, the binding signal (normalized occupancy) stood at 0.0733.

With ACGCTTCA, the binding signal (normalized occupancy) turned out to be 0.0799.

As for CGTCTAAC, the binding signal (normalized occupancy) amounted to 0.0695.

Regarding AATGGACA, the binding signal (normalized occupancy) was found to be 0.0787.

In the case of ACATCCAC, the binding signal (normalized occupancy) stood at 0.0907.

For the sequence GCATTGGA, the binding signal (normalized occupancy) stood at 0.0838.

As to AGAATTGG, the binding signal (normalized occupancy) stood at 0.0713.

Regarding CGGCTCGC, the binding signal (normalized occupancy) worked out at 0.0654.

In the case of CGTCACCA, the binding signal (normalized occupancy) is 0.0731.

For GCGCCGAC, the binding signal (normalized occupancy) was determined as 0.0666.

On to CGAGATAC, for which the binding signal (normalized occupancy) is 0.0772.

For AAAGAGCT, the binding signal (normalized occupancy) was determined as 0.0673.

Turning to CACCCAGA, the binding signal (normalized occupancy) is 0.0683.

For the sequence CTAAACTC, the binding signal (normalized occupancy) came out at 0.0725.

With TAAGCTCA, the binding signal (normalized occupancy) stood at 0.0758.

As to CAAACACA, the binding signal (normalized occupancy) was determined as 0.0888.

For AATATAAA, the binding signal (normalized occupancy) stood at 0.0774.

GATAAGAA: the binding signal (normalized occupancy) is 0.0735.

Take AGTGTCGC: the binding signal (normalized occupancy) was 0.0694.

Turning to AGACTTTC, the binding signal (normalized occupancy) was found to be 0.0728.

As for CGTCTCGC, the binding signal (normalized occupancy) was 0.0696.

With ATGCCGGG, the binding signal (normalized occupancy) came out at 0.0708.

In the case of CTCACCAA, the binding signal (normalized occupancy) came out at 0.076.

With TCGATGCA, the binding signal (normalized occupancy) was 0.0793.

As for CGAATTGA, the binding signal (normalized occupancy) stood at 0.0709.

As to ACCAGTTG, the binding signal (normalized occupancy) was 0.0731.

With ACGGGCGA, the binding signal (normalized occupancy) worked out at 0.0685.

In the case of AAAGCCAC, the binding signal (normalized occupancy) turned out to be 0.0794.

For the sequence AGGCCCGA, the binding signal (normalized occupancy) came out at 0.0666.

With CACCCGGG, the binding signal (normalized occupancy) came out at 0.0702.

In the case of CCCACGTA, the binding signal (normalized occupancy) came to 0.0823.

For AACTTTCT, the binding signal (normalized occupancy) came to 0.0728.

As to AGTACTCG, the binding signal (normalized occupancy) stood at 0.0711.

In the case of GGCAGACC, the binding signal (normalized occupancy) was determined as 0.0717.

Consider GCGCAACC, for which the binding signal (normalized occupancy) amounted to 0.0764.

With CCGACTAC, the binding signal (normalized occupancy) stood at 0.0708.

As for CGGTCCCA, the binding signal (normalized occupancy) was 0.0694.

Regarding ACGCCTAT, the binding signal (normalized occupancy) came out at 0.0801.

For the sequence AATGTGGC, the binding signal (normalized occupancy) came to 0.0898.

As for CTGGTTGC, the binding signal (normalized occupancy) was determined as 0.071.

Consider CATTAGAG, for which the binding signal (normalized occupancy) turned out to be 0.0766.

Consider CACAAAGA, for which the binding signal (normalized occupancy) was 0.0729.

Regarding AAGGTTAC, the binding signal (normalized occupancy) worked out at 0.0726.

Regarding AGCAATCG, the binding signal (normalized occupancy) is 0.0715.

Take CCTACTGA: the binding signal (normalized occupancy) is 0.0734.

On to ATATATAG, for which the binding signal (normalized occupancy) worked out at 0.0861.

With GAACCGTA, the binding signal (normalized occupancy) was 0.0741.

With CCCGTTGA, the binding signal (normalized occupancy) was determined as 0.0706.

Consider AATGGTCA, for which the binding signal (normalized occupancy) came to 0.0816.

Regarding CCTGGACG, the binding signal (normalized occupancy) turned out to be 0.0787.

Turning to GTTTCCTA, the binding signal (normalized occupancy) worked out at 0.0787.

In the case of CCGTGCAA, the binding signal (normalized occupancy) is 0.078.

With CTTATCCA, the binding signal (normalized occupancy) was 0.0789.

For the sequence GCGCACAA, the binding signal (normalized occupancy) is 0.0724.

In the case of ATTCTATC, the binding signal (normalized occupancy) came to 0.0792.

Take AGAAGAAG: the binding signal (normalized occupancy) amounted to 0.0699.

For the sequence GAATCAAC, the binding signal (normalized occupancy) came out at 0.0782.

For AGTAGACA, the binding signal (normalized occupancy) was 0.0752.

Turning to AACTCCCT, the binding signal (normalized occupancy) was found to be 0.0751.

As to AAAGGGGG, the binding signal (normalized occupancy) turned out to be 0.0759.

On to CTTGGTGC, for which the binding signal (normalized occupancy) was found to be 0.0767.

For the sequence GCGACACC, the binding signal (normalized occupancy) worked out at 0.071.

Regarding GGTTCAGA, the binding signal (normalized occupancy) came to 0.0752.

In the case of AGGATTGA, the binding signal (normalized occupancy) was 0.0743.

As for CTCCAGTC, the binding signal (normalized occupancy) is 0.0721.

GTGAGATA: the binding signal (normalized occupancy) came out at 0.0858.

With AACATTAT, the binding signal (normalized occupancy) was 0.0851.

As to ACGGTTAC, the binding signal (normalized occupancy) came to 0.0714.

As to AACAGTCC, the binding signal (normalized occupancy) stood at 0.072.

Turning to AAGACCCT, the binding signal (normalized occupancy) amounted to 0.07.

Take ACCCATTA: the binding signal (normalized occupancy) was determined as 0.0779.

For the sequence AGAAGGTA, the binding signal (normalized occupancy) was found to be 0.0772.

As for GAATAGAA, the binding signal (normalized occupancy) amounted to 0.0754.

As for AAGAACCT, the binding signal (normalized occupancy) worked out at 0.0744.

With AGATATTC, the binding signal (normalized occupancy) turned out to be 0.0788.

As to CGTTTCGA, the binding signal (normalized occupancy) came out at 0.0673.

As for ATTGCAAC, the binding signal (normalized occupancy) is 0.0742.

Regarding AGACGAAA, the binding signal (normalized occupancy) stood at 0.0748.

In the case of CTCTAGGA, the binding signal (normalized occupancy) was found to be 0.0722.

On to CGCCACCC, for which the binding signal (normalized occupancy) is 0.0855.

CCCGTTTC: the binding signal (normalized occupancy) is 0.0701.

GACGGGTA: the binding signal (normalized occupancy) was determined as 0.0755.

For the sequence CCGAAGGC, the binding signal (normalized occupancy) is 0.0646.

On to CGCGTCCA, for which the binding signal (normalized occupancy) turned out to be 0.072.

Regarding ATACTACG, the binding signal (normalized occupancy) stood at 0.0766.

For the sequence GACAGCAA, the binding signal (normalized occupancy) was found to be 0.0729.

As for AATGCCGG, the binding signal (normalized occupancy) came to 0.068.

Consider GGACGGAA, for which the binding signal (normalized occupancy) was 0.0748.

For CCGGAAGA, the binding signal (normalized occupancy) was determined as 0.069.

Regarding AGTTGCCG, the binding signal (normalized occupancy) was 0.0725.

In the case of ACATACCG, the binding signal (normalized occupancy) was determined as 0.0771.

GTTTTGGA: the binding signal (normalized occupancy) stood at 0.0787.

On to ACCCAGGC, for which the binding signal (normalized occupancy) worked out at 0.069.

GCCTCACA: the binding signal (normalized occupancy) worked out at 0.0782.

On to CTCCAGTA, for which the binding signal (normalized occupancy) came to 0.0743.

Take AGAATAAG: the binding signal (normalized occupancy) is 0.0779.

As for AAGTGCGC, the binding signal (normalized occupancy) was 0.0714.

In the case of ATTCTTCA, the binding signal (normalized occupancy) amounted to 0.0741.

In the case of AAGGACGT, the binding signal (normalized occupancy) is 0.0736.

For CAGTATTC, the binding signal (normalized occupancy) stood at 0.0769.

Regarding GAATGAGA, the binding signal (normalized occupancy) amounted to 0.0744.

Turning to CACGTGAA, the binding signal (normalized occupancy) stood at 0.231.

As to GGTAGCAA, the binding signal (normalized occupancy) worked out at 0.0775.

For ATACGGTA, the binding signal (normalized occupancy) was 0.0762.

For the sequence ACAGCACA, the binding signal (normalized occupancy) turned out to be 0.0828.

Consider AGGCGCGC, for which the binding signal (normalized occupancy) turned out to be 0.0762.

On to ACGAACAA, for which the binding signal (normalized occupancy) was determined as 0.075.

For the sequence ACGATTAG, the binding signal (normalized occupancy) was determined as 0.0719.

CCGCGCGG: the binding signal (normalized occupancy) worked out at 0.0872.

Regarding ACCCAAAA, the binding signal (normalized occupancy) amounted to 0.0704.

CCATGCTA: the binding signal (normalized occupancy) turned out to be 0.0945.

For AACGACAT, the binding signal (normalized occupancy) turned out to be 0.08.

In the case of GAAACTTA, the binding signal (normalized occupancy) turned out to be 0.0725.

Consider CGCAAGTC, for which the binding signal (normalized occupancy) amounted to 0.0757.

For the sequence TTACCTAA, the binding signal (normalized occupancy) was 0.0795.

With AGCCAGCT, the binding signal (normalized occupancy) was determined as 0.0716.

On to AATTCTTG, for which the binding signal (normalized occupancy) was 0.0737.

In the case of CACTTTGG, the binding signal (normalized occupancy) was determined as 0.0692.
